Reference: US9605080B2, “Antibodies against CD73” (BRISTOL-MYERS SQUIBB COMPANY, priority 2014, dated 2017)

Legend:
[1] = Differential scanning calorimetry, thermal stability of CD73 mAbs; format: physicochemical; conditions: PBS pH 7.1
Procedure: The thermal stability of CD73 mAbs were determined using a MicroCal Capillary DSC instrument (GE Healthcare). Antibodies were analyzed at a concentrations of 0.5-0.75 mg/ml in PBS pH 7.1. To stabilize the DSC instrument baseline and obtain a consistent thermal history, multiple scans of buffer alone in both the sample and reference cell were recorded prior to sample analysis. Sample scans contained mAb in the sample cell and PBS pH 7.1 in the reference cell. All scans were run from 10-110° C. at a scan rate of 60°/hr using a 5 minute pre-cycle thermostat period and no post-cycle thermostat period. Data (as shown in Table 15 below) were analyzed using MicroCal Origin Cap DSC analysis software. The appropriate buffer-buffer blank scans were subtracted from the sample-buffer data, and the transition midpoint temperature (Tm) values were determined by fitting the data to a non-2-state model. Tm1, Tm2 and Tm3 are the Tms for different domains in the antibodies.

[2] = molecular target: T1, CD73 in Calu6 cells (Homo sapiens, UniProt P21589); experiment: Kinetic high-content internalization study, Calu6 cells; format: cell-based; conditions: FIGS. 23A-D, several cell lines
T1 construct: Calu6 (CD73 endogenous expressors; human pulmonary adenocarcinoma cell line); endogenous in cells; host or cells: Calu6 (human pulmonary adenocarcinoma)
T1 sequence (P21589 27-549): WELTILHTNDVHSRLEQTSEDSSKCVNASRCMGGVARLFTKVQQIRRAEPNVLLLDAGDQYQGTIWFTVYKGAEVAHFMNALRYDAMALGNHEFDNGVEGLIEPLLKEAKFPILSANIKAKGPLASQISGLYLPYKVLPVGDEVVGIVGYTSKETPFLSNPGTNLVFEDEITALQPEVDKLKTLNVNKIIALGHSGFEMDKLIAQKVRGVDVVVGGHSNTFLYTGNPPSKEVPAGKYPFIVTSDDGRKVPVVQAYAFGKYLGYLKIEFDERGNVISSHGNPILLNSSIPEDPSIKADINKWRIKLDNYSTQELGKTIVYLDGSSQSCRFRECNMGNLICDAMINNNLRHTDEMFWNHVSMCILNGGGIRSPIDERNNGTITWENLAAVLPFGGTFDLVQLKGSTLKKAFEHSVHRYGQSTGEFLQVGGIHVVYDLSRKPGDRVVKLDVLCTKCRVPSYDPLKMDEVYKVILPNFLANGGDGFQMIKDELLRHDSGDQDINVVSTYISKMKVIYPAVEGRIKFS
Procedure: Kinetic internalization studies were performed to assess the rate of internalization. Cells (2,000 cells/well) in 20 μl of complete medium (Gibco RPMI Media 1640 with 10% heat inactivated fetal bovine serum) were plated in 384 BD Falcon plate and grown overnight at 37° C. 5% CO2 and 95% humidity. CD73 antibodies were diluted with PBS buffer containing 0.2% BSA to 10 μg/ml and added 5 μl/well into the cell plate. The cells were incubated with antibodies for a 0-2 hour time course at 37° C., followed by washing once with PBS buffer. The cells were subsequently fixed with formaldehyde (final 4% in PBS) at room temperature for 10 minutes, and then washed once with 30 ul. PBS. […] The plate was incubated at 4° C. for overnight. On the next day, after 3 washes in PBS buffer, Secondary antibody Alexa488-goat anti human with DAPI were added. The cells were stained for 60 minutes at room temperature, after 3 washes, images were acquired using Arrayscan Vti (Cellomics, Pittsburgh, Pa.).

internalization [2]: did not internalize significantly
B1: 5F8: human anti-CD73 mAb, IgG1za, predominant light chain VK1 (antibody)
heavy: EVQLVESGGGLVQPGGSLRLSCAASGFTFSSYWMHWVRQAPGKGLVWVSRIISDGSSTGYADSVKGRFTISRDNAKNTLYLQMNSLRAEDTAVYYCAREFSSGWYFDYWGQGTLVTVSS[sequence of human IgG1 constant region omitted]
light: AIQLTQSPSSLSASVGDRVTITCRASQGISSALAWYQQKPGKAPKLLIYDASSLESGVPSRFSGSGSGTDFTLTISSLQPEDFATYYCQQFSSYPRTFGQGTKVEIKRTVAAPSVFIFPPSDEQLKSGTASVVCLLNNFYPREAKVQWKVDNALQSGNSQESVTEQDSKDSTYSLSSTLTLSKADYEKHKVYACEVTHQGLSSPVTKSFNRGEC
modifications: Synthetic: 5F8 (full length heavy chain); Synthetic: 5F8 (full length light chain 1)
notes: human anti-CD73 mAb, IgG1za, predominant light chain VK1
DSC Tm1 (oC) [1]: 68.7 oC | DSC Tm2 (oC) [1]: 82.7 oC | DSC Tonset (oC) [1]: 59.0 oC
